Measurements taken from PubChem BioAssay AID652104 (National Center for Advancing Translational Sciences (NCATS), 2013).
The campaign covered roughly 410,000 compounds. About 7,200 (1.8%) were called active. This list was built around the results that the source calls inconclusive (neither active nor inactive); the mix of calls is not that of the screen. Calls follow the shape of the dose curve; as a rule, active = well fitted activation curve with a large enough effect; inconclusive = small, poorly fitted or top-dose-only effect, or another doubt; inactive = no such curve, though single readings can be large or run the other way. Potencies of inconclusive entries are doubtful fits and often do not repeat.

assay: qHTS of TDP-43 Inhibitors; settings: TDP-43 expressing yeast growth rescue, BacTiter-Glo, 24 h; growth rescue (activation): at 46.1 µM (top of the series) unless noted; also: nearly all actives have a fitted effect of over 50% in size; as to growth rescue (activation): % of control where 0% means no effect
Procedure, shortened: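 Yeast expressing TDP-43 (pregrown in raffinose, seeded at OD600=0.02 in galactose medium) exposed to compounds 24 hr at 30 deg C. Growth read by BacTiter-Glo luminescence; rescue of toxicity appears as increased signal.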
Potency is read from the fitted curve at half-maximal effect; tags tell the direction and shape of the fitted curve.

Potency, inactive:
O=C(Nc1cc(Cl)ccc1N1CCCCC1)c1cccs1
COc1cc(OC)c(NC(=O)c2ccc3c(Cl)c4c(nc3c2)CCCC4)cc1Cl
Cc1c(Cl)cccc1NC(=O)NCCOCCn1c(=O)oc2ccccc21
O=C(O)c1ccc(Nc2ccc(Cl)c(Cl)c2)c([N+](=O)[O-])c1
O=C(O)c1ccccc1NS(=O)(=O)c1cccc2nsnc12
Fc1ccc(/C=N/NC(=S)Nc2ccc(Cl)cc2Cl)cc1
CCOc1ccc(CNC(=O)Nc2ccc3c(c2)N(C)C(=O)c2ccccc2S3)cc1
Cc1ccc2c(=O)cc(C(=O)Nc3ccc(S(=O)(=O)N4CCCCC4)cc3)oc2c1
O=C(CSc1nnc(CNC(=O)c2ccccc2)o1)NCc1ccccc1Cl
Cc1nn(-c2ccccc2)c(N2CCCC2)c1/C=N/NC(=S)Nc1ccccc1C(F)(F)F
Cc1ccc(NC(=O)CN2C(=O)CSc3ccc(S(=O)(=O)N(C)C)cc32)c(C)c1

Potency, inconclusive:
CC(C)Sc1nc2c(c(=O)n1-c1ccc(F)cc1)SCC2 35.5 µM [activator, single point]
COc1ccc(Nc2nc(C)nc3c2oc2ccccc23)cc1 11.2 µM [activator, partial curve]
COc1ccc(C)cc1NC(=O)C1CCCN1S(=O)(=O)c1ccccc1F (stereo not given) 28.2 µM [activator, partial curve]
CCc1ccc2c(c1)NC(=O)C2(C)Cc1ccccc1 (stereo not given) 0.562 µM [activator, partial curve, poor fit]
COc1cccc(-c2ccnc3[nH]n(-c4ccccc4)c(=O)c23)c1 3.55 µM [activator, single point]
CCCCCNC(=O)C(CCc1ccccc1)n1c(=O)c(-c2ccccc2)nc2ccccc21 (stereo not given) 35.5 µM [activator, partial curve]
COc1ccccc1C/C(N)=N/OC(=O)COc1cc(C)cc(C)c1C 12.6 µM [activator, single point]
CC1(C)Oc2ccc(C#N)cc2[C@@H](N2CCCC2=O)[C@@H]1O 1 µM [activator, full curve, poor fit]
O=C(N/C(=C/c1ccccc1)C(=O)N1CCCCC1)c1ccco1 3.98 µM [activator, single point]
CCn1c(O)c(C=NC2CCCC2)sc1=S 15.8 µM [activator, single point]
CCn1cc(C(=O)N2CCN(c3ccccc3)CC2)c(=O)c2cc(S(=O)(=O)N3CCC(C)CC3)ccc21 2.24 µM [activator, partial curve]
O=C(Cn1cc(SCc2ccc(F)cc2)c2ccccc21)N1CCOCC1 17.8 µM [activator, single point]
Cc1nc2ccc(C(=O)NCCCN3CCCC3=O)cn2c1N(C)C(=O)CCc1ccccc1 5.62 µM [activator, single point]
CC(C)NC(=O)c1cc(-c2ccco2)nn1-c1ccc(Cl)cc1 12.6 µM [activator, partial curve]
NC1=NC(=O)/C(=C/c2cn(CCC(=O)O)nc2-c2ccc(F)cc2)S1 35.5 µM [activator, partial curve, poor fit]
COc1ccc2c(CN3CCOCC3)cc(=O)oc2c1 35.5 µM [activator, partial curve, poor fit]
COc1cc2c(cc1OC)C(c1ccccc1O)N(C1CC(=O)N(c3ccccc3)C1=O)CC2 (stereo not given) 15.8 µM [activator, single point]
Cc1[nH][nH]c(=O)c1N=Nc1ccccc1 11.2 µM [activator, partial curve]
CCn1cc(C(=O)NCCc2ccc(Cl)cc2)c(=O)c2ccc(C)nc21 17.8 µM [activator, partial curve]
CCCCCCCNC(=O)C1(CC2CC(c3cccc(Br)c3)=NO2)CCN(C(=O)CCCCCBr)CC1 (stereo not given) 31.6 µM [activator, single point]
Oc1ccc(N=C/C=C/c2cccc(Br)c2)cc1-c1nc2ccccc2s1 17.8 µM [activator, single point]
C[C@H](CO)N1C[C@H](C)[C@@H](CN(C)C(=O)Nc2ccc(C(F)(F)F)cc2)Oc2ccc(NC(=O)Nc3ccc(C(F)(F)F)cc3)cc2C1=O 3.16 µM [activator, partial curve]
CCCCN(C)C(=O)c1oc2ccc(S(=O)(=O)N3CCCCCC3)cc2c1C 31.6 µM [activator, single point]
COC(C(=O)Nc1ccc(F)c(F)c1)c1ccccc1 (stereo not given) 10 µM [activator, partial curve]
O=C(c1cc2c(s1)CCCC2)N1CCN(S(=O)(=O)c2ccccc2C(F)(F)F)CC1 12.6 µM [activator, partial curve]

Potency, active:
CC(C)c1nnc(NC(=O)c2nc(S(=O)(=O)Cc3ccccc3)ncc2Cl)s1 8.91 µM
COCCCNc1nc2ccccc2nc1NS(=O)(=O)c1cc(Cl)ccc1Cl 22.4 µM
COC(=O)c1ccccc1NC(=O)CCC(=O)N1CC(C)Sc2ccccc21 (stereo not given) 17.8 µM
COc1ccc(C2=CC(=O)CC(c3ccccc3)C2)cc1 (stereo not given) 17.8 µM
Cc1nn(Cc2ccc(C(=O)Nc3ccccc3C(F)(F)F)o2)c(C)c1Br 12.6 µM
Cc1ccc(-n2ncc3c(NC4CCCC4)ncnc32)cc1 1.26 µM
O=[N+]([O-])c1ccc(CNc2cccc(Cl)c2)s1 17.8 µM

Growth rescue (activation), inactive:
O=C(Cn1cc2c(n1)CCCC2)Nc1cc(C(F)(F)F)ccc1Cl 26% [at 9.22 µM]

Growth rescue (activation), inconclusive:
N#C/C(=C\c1ccccc1C(F)(F)F)C(=O)Nc1ccccc1F -58.2% [activator]
